Some of the results follow. Cut-off read from the data, not from the text of the source: active = 3.2 or more and inactive = the rest. Only a few entries rise above the background.
Columns and labels:
Test in all cases: enrichment score (SH2-bound / input frequency) (ratio); bacterial display of known human phosphotyrosine sites (pTyr-Var adds point mutants) read by sequencing; higher = stronger binding; tyrosines were phosphorylated by kinases first
Details in all cases: peptide library: pTyr-Var
SHP2 C-SH2 domain E139D = biological target: SHP2 C-SH2 domain E139D
[1] = biological target: SHP2 C-SH2 domain wild-type
SHP2 N-SH2 domain L43F = biological target: SHP2 N-SH2 domain L43F
SHP2 N-SH2 domain T42A = biological target: SHP2 N-SH2 domain T42A
SHP2 N-SH2 domain T52S = biological target: SHP2 N-SH2 domain T52S
[2] = biological target: SHP2 N-SH2 domain wild-type

Measured: enrichment score
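Note: displayed peptides selected on beads carrying the immobilized SH2 domain, with library peptides lacking any tyrosine serving as negative controls.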

B1: ITGB3_Y773 (peptide)
chain: ANNPLYKEATS
inactive: SHP2 C-SH2 domain E139D 0.801 | [1] 0.754 | SHP2 N-SH2 domain L43F 0.62 | SHP2 N-SH2 domain T42A 0.754 | SHP2 N-SH2 domain T52S 0.636 | [2] 0.684

B2: ITGB3_Y773_A776V (peptide)
chain: ANNPLYKEVTS
inactive: SHP2 C-SH2 domain E139D 0.562 | [1] 0.618 | SHP2 N-SH2 domain L43F 0.767 | SHP2 N-SH2 domain T42A 0.55 | SHP2 N-SH2 domain T52S 0.8 | [2] 0.791

B3: ITGB3_Y773_S778P (peptide)
chain: ANNPLYKEATP
inactive: SHP2 C-SH2 domain E139D 0.757 | [1] 0.715 | SHP2 N-SH2 domain L43F 0.492 | SHP2 N-SH2 domain T42A 0.64 | SHP2 N-SH2 domain T52S 0.597 | [2] 0.891

B4: ITGB3BP_Y32_I30V (peptide)
chain: KSVVTYSPTTG
inactive: SHP2 C-SH2 domain E139D 0.671 | [1] 0.651 | SHP2 N-SH2 domain L43F 0.564 | SHP2 N-SH2 domain T42A 0.644 | SHP2 N-SH2 domain T52S 0.544 | [2] 0.719

B5: ITGB7_Y753 (peptide)
chain: LSVEIYDRREY
inactive: SHP2 C-SH2 domain E139D 0.845 | [1] 0.787 | SHP2 N-SH2 domain L43F 0.658 | SHP2 N-SH2 domain T42A 0.621 | SHP2 N-SH2 domain T52S 0.838 | [2] 1.11

B6: ITGB7_Y758 (peptide)
chain: YDRREYSRFEK
inactive: SHP2 C-SH2 domain E139D 0.629 | [1] 0.511 | SHP2 N-SH2 domain L43F 0.594 | SHP2 N-SH2 domain T42A 0.557 | SHP2 N-SH2 domain T52S 0.607 | [2] 0.589

B7: ITGB7_Y758_Y753H (peptide)
chain: HDRREYSRFEK
inactive: SHP2 C-SH2 domain E139D 0.704 | [1] 0.626 | SHP2 N-SH2 domain L43F 0.669 | SHP2 N-SH2 domain T42A 0.699 | SHP2 N-SH2 domain T52S 0.537 | [2] 1.06

B8: ITK_Y336_R335W (peptide)
chain: VTRLWYPVCFG
inactive: SHP2 C-SH2 domain E139D 1.23 | [1] 1.54 | SHP2 N-SH2 domain L43F 1.42 | SHP2 N-SH2 domain T42A 1.17 | SHP2 N-SH2 domain T52S 1.35 | [2] 1.69

B9: ITSN1_Y1132_S1137N (peptide)
chain: WFPANYVKLLN
inactive: SHP2 C-SH2 domain E139D 1.25 | [1] 2.89 | SHP2 N-SH2 domain L43F 1.72 | SHP2 N-SH2 domain T42A 2.98 | SHP2 N-SH2 domain T52S 1.43 | [2] 1.42

B10: JAGN1_Y42 (peptide)
chain: IKKLIYVHLVI
inactive: SHP2 C-SH2 domain E139D 0.811 | [1] 0.794 | SHP2 N-SH2 domain L43F 0.863 | SHP2 N-SH2 domain T42A 0.743 | SHP2 N-SH2 domain T52S 0.76 | [2] 0.965

B11: JAGN1_Y42_H44Y_YF (peptide)
chain: IKKLIYVFLVI
inactive: SHP2 C-SH2 domain E139D 1.99 | [1] 1.77 | SHP2 N-SH2 domain L43F 1.64 | SHP2 N-SH2 domain T42A 1.5 | SHP2 N-SH2 domain T52S 2 | [2] 1.78

B12: JAK2_Y372 (peptide)
chain: SLIDGYYRLTA
inactive: SHP2 C-SH2 domain E139D 1.24 | [1] 2.67 | SHP2 N-SH2 domain L43F 1.34 | SHP2 N-SH2 domain T42A 1.09 | SHP2 N-SH2 domain T52S 1.22 | [2] 1.12

B13: JAK2_Y373_A377E (peptide)
chain: LIDGYYRLTED
inactive: SHP2 C-SH2 domain E139D 0.994 | [1] 2.77 | SHP2 N-SH2 domain L43F 0.841 | SHP2 N-SH2 domain T42A 1.03 | SHP2 N-SH2 domain T52S 1.18 | [2] 0.939

B14: JAK2_Y373_A377E_YF (peptide)
chain: LIDGFYRLTED
inactive: SHP2 C-SH2 domain E139D 0.865 | [1] 0.695 | SHP2 N-SH2 domain L43F 1.02 | SHP2 N-SH2 domain T42A 0.852 | SHP2 N-SH2 domain T52S 1.1 | [2] 1.03

B15: JAK2_Y382_A377E (peptide)
chain: EDAHHYLCKEV
inactive: SHP2 C-SH2 domain E139D 1.54 | [1] 1.35 | SHP2 N-SH2 domain L43F 0.962 | SHP2 N-SH2 domain T42A 0.927 | SHP2 N-SH2 domain T52S 1.25 | [2] 1.2

B16: JAK2_Y613 (peptide)
chain: HLVLNYGVCVC
inactive: SHP2 C-SH2 domain E139D 1.59 | [1] 1.86 | SHP2 N-SH2 domain L43F 1.26 | SHP2 N-SH2 domain T42A 1.86 | SHP2 N-SH2 domain T52S 1.12 | [2] 1.61

B17: JAK2_Y613_V617I (peptide)
chain: HLVLNYGVCIC
inactive: SHP2 C-SH2 domain E139D 1.78 | [1] 2.47 | SHP2 N-SH2 domain L43F 0.995 | SHP2 N-SH2 domain T42A 1.46 | SHP2 N-SH2 domain T52S 1.09 | [2] 2.22

B18: JAK2_Y931 (peptide)
chain: KLIMEYLPYGS
inactive: SHP2 C-SH2 domain E139D 1.22 | [1] 1.11 | SHP2 N-SH2 domain L43F 1.21 | SHP2 N-SH2 domain T42A 1.31 | SHP2 N-SH2 domain T52S 1.25 | [2] 1.18

B19: JAK2_Y931_Y931C_YF (peptide)
chain: KLIMECLPFGS
inactive: SHP2 C-SH2 domain E139D 1.02 | [1] 1.15 | SHP2 N-SH2 domain L43F 1.11 | SHP2 N-SH2 domain T42A 0.708 | SHP2 N-SH2 domain T52S 1.07 | [2] 1.39

Reference: the supplement of paper PMC10369915
